Assay results taken from PubChem BioAssay AID624296 (National Center for Advancing Translational Sciences (NCATS), 2012).
Among all 350,000 compounds or so, about 9,900 (2.8%) were called active. The inconclusive results got no clear call from the source; some entries with a clear call stand among them for comparison. Calls come from the whole dose curve; as a rule, active = well fitted activation curve with a large enough effect; inconclusive = small, poorly fitted or top-dose-only effect; inactive = no such curve, though single readings can be large or run the other way. No potency is given beside an inconclusive call; the fits are too rough.
Potency is the fitted concentration of half-maximal effect; tags give direction and shape of the fitted curve.

Test: A quantitative high throughput screen for small molecules that induce DNA re-replication in MCF 10a normal breast cells. Note: nearly all actives have a fitted effect of over 50% in size.
Conditions: MCF 10A DNA re-replication, Hoechst nuclear intensity, 48 h; series mostly up to 46.1 µM
In the case of O=C(O)CN1C(=O)/C(=C\c2cc(Br)ccc2OCc2ccc(Cl)cc2)SC1=S, the Potency is reported as inconclusive [activator, single point]. For Cc1cccc(NC(=O)c2cccc(NC(=O)c3ccco3)c2)c1C, the Potency was “inactive”. With COc1ccc(-n2cc(-c3ccccc3)nc2SC)cc1 the Potency was inconclusive [activator, single point]. In the case of Cc1ccc(CNC(=O)CSc2nc3ccsc3c(=O)n2Cc2ccccn2)cc1, the Potency is reported as “inactive”. With CCC(=O)c1ccc(OC(=O)N2CCOCC2)cc1 the Potency was “inactive”. For CCCCC(C)(O)C/C=C/[C@H]1[C@H](O)CC(=O)[C@@H]1CCCCCCC(=O)OC (stereo not given in full), the Potency was inconclusive [activator, single point]. In the case of FC(F)(F)c1nnc(-c2ccccc2)nc1Oc1ccc(Cl)cc1Cl, the Potency is reported as active: 3.26 µM. For O=[N+]([O-])c1ccc(OCc2cnc(Cl)s2)c([N+](=O)[O-])c1, the Potency was inconclusive [activator, single point]. With O=C(c1ccco1)N1CCN(C(=O)C2CCCc3c2[nH]c2ccc(Cl)cc32)CC1 (stereo not given) the Potency was inconclusive [activator, single point]. In the case of CCCOC(=O)C(C)n1cnc2scc(-c3ccc(C)cc3)c2c1=O (stereo not given), the Potency is reported as inconclusive [activator, partial curve, poor fit]. In the case of Cc1ccn2c(=O)nc(SCC(=O)Nc3ccc4c(c3)OCO4)nc2c1, the Potency is reported as inconclusive [activator, single point]. For COc1ccc(N(C(=O)COc2ccccc2)C2C=CS(=O)(=O)C2)cc1 (stereo not given), the Potency was inconclusive [activator, single point]. With O=C(CCCOc1ccccc1)N1CCN(c2ccccn2)CC1 the Potency was “inactive”. With Cc1cccc(C)c1Nc1nnc(SCC(=O)NCc2cccs2)s1 the Potency was inconclusive [activator, full curve, poor fit]. In the case of Cc1ccccc1NC(=O)Cn1nnc(C(=O)NCc2ccco2)c1N, the Potency is reported as inconclusive [activator, single point]. In the case of NS(=O)(=O)c1ccc(CNC(=O)CSc2nc3ccc(Cl)cc3[nH]2)cc1, the Potency is reported as “inactive”. In the case of COc1ccccc1CNC(=O)COC(=O)Cc1c(Cl)cccc1Cl, the Potency is reported as “inactive”. With CCOC(=O)c1ccccc1NC(=O)c1cn(-c2ccc(OC)cc2)c(=O)c2ccccc12 the Potency was inconclusive [activator, partial curve, poor fit]. With COc1cc(C(C#N)N2N=C(c3ccccc3)CC2c2ccccc2)ccc1O (stereo not given) the Potency was inconclusive [activator, partial curve]. For CCCN(CCC)CCCNC(=S)Nc1ccc2nc(N3CCCC3)cc(C)c2c1, the Potency was inconclusive [activator, partial curve, poor fit]. With Cc1[nH]n(-c2ccccc2)c(=O)c1C=Nc1cccc(F)c1 the Potency was “inactive”. With CC(C)(C)c1nc(NCCO)c2nnn(Cc3ccccc3)c2n1 the Potency was “inactive”. With Nc1nnnn1CC(=O)OCc1cccc(Br)c1 the Potency was inconclusive [activator, partial curve, poor fit]. In the case of CN(C)S(=O)(=O)c1cccc(C(=O)N2CCN(C(=O)C3CCCO3)CC2)c1 (stereo not given), the Potency is reported as “inactive”. In the case of CC(C)n1c(O)c(N=NC(=O)CNC(=O)Cc2ccc(Cl)cc2)c2ccccc21, the Potency is reported as “inactive”. With O=C(NC1CCCCC1)C(c1ccc(F)cc1)N(Cc1ccccc1)C(=O)CN1C(=O)c2ccccc2S1(=O)=O (stereo not given) the Potency was inconclusive [activator, single point]. For O=C(c1ccc(OC2CCN(Cc3ccccc3C(F)(F)F)CC2)cc1)N1CCCCC1, the Potency was inconclusive [activator, single point]. For COc1ccc(-n2c(Cc3ccccc3)nnc2SCC(=O)N2CCCc3ccccc32)cc1, the Potency was “inactive”. For CCCn1c(=O)c2c(C(F)(F)F)cc(-c3ccco3)nc2n(CCC)c1=O, the Potency was inconclusive [activator, single point]. In the case of Nc1cc(-c2nn[nH]n2)ccc1F, the Potency is reported as inconclusive [activator, partial curve, poor fit]. For CC(C(=O)Nc1ccc(C#N)cc1)N1CCN(C(=O)C2CC2)CC1 (stereo not given), the Potency was “inactive”. For C=C[C@@H]1c2ccccc2N(S(=O)(=O)c2ccc(C)cc2)[C@H](c2ccc(C(F)(F)F)cc2)C1(C#N)C#N, the Potency was inconclusive [activator, full curve, poor fit]. In the case of O=C(c1ccc(NC2=NC3CS(=O)(=O)CC3S2)cc1)N(CCO)Cc1ccccc1 (stereo not given), the Potency is reported as “inactive”. For Cc1ccc(OCC(=O)Nc2ccc(NC(=O)c3ccco3)cc2)c(C)c1, the Potency was inconclusive [activator, single point]. With CC1(C(=O)OCc2cc(=O)n3cc(Br)ccc3n2)CC1(Cl)Cl (stereo not given) the Potency was “inactive”. With CCOC(=O)N1CCC(N2CCN(c3ccccc3)CC2)CC1 the Potency was inconclusive [activator, single point]. In the case of OCC1OC(n2cnc3c(SCc4ccccc4)ncnc32)C(O)C1O (stereo not given), the Potency is reported as inconclusive [activator, full curve, poor fit]. For Cc1cccc(Nc2nc(-c3ccc(O)c(O)c3)cs2)n1, the Potency was inconclusive [activator, partial curve, poor fit]. With COc1ccc(NC(=O)C2CC(=O)N(c3ccccc3Cl)C2)c(OC)c1 (stereo not given) the Potency was inconclusive [activator, single point]. With Cc1ccc(CSc2nc3ccncc3n2CC(=O)Nc2cc(C)cc(C)c2)cc1 the Potency was inconclusive [activator, partial curve, poor fit]. In the case of COc1cc(OC)cc(C(=O)Nc2ccc(NC(=O)c3ccco3)c(C)c2)c1, the Potency is reported as “inactive”. With Oc1c(Br)cc(C2N=C(c3ccccc3)NO2)cc1Br (stereo not given) the Potency was inconclusive [activator, full curve, poor fit]. For COc1ccc(C(=O)NC(=S)NCCc2ccccc2)cc1, the Potency was “inactive”. With Cn1c(NC(=S)Nc2ccccc2)nc2ccccc21 the Potency was “inactive”. For O=C(O)c1cc(-c2ccc(Cl)c(Cl)c2)n(-c2ccccc2)n1, the Potency was inconclusive [activator, partial curve, poor fit]. With COc1cccc(CNc2ncc(C(=O)Nc3cc(OC)c(OC)c(OC)c3)c(C)n2)c1 the Potency was inconclusive [activator, single point]. In the case of CCc1sc(-c2c(C#N)c(N)nc3c2CCCCCC3)cc1[N+](=O)[O-], the Potency is reported as inconclusive [activator, single point]. For Cc1ccc(Cl)cc1N1CCN(C(=O)CN2C(=O)c3cccc4cccc2c34)CC1, the Potency was “inactive”. For Cc1cc(C)c(S(=O)(=O)ON2C(=O)c3ccccc3C2=O)cc1C, the Potency was active: 7.31 µM. In the case of CCCN1C(=O)/C(=C2\SC(N3CCCCC3)=NC2=O)c2ccccc21, the Potency is reported as “inactive”. In the case of COc1ccc(-n2cnc3cc(N)ccc32)cc1, the Potency is reported as inconclusive [activator, single point]. For O=C1c2ccccc2[C@@H]2CC(O)C(O)CCN12 (stereo not given in full), the Potency was “inactive”. In the case of CCCNC(=S)Nc1ccc(Cl)cc1C, the Potency is reported as inconclusive [activator, partial curve, poor fit]. For CCOc1ccc2oc(C(=O)NC3CCN(Cc4ccccc4)CC3)c(C)c2c1, the Potency was inconclusive [activator, single point]. In the case of COc1ccc2c(c1)c(CC(=O)Nc1cccc(S(N)(=O)=O)c1)c(C)n2C(=O)c1ccc(Cl)cc1, the Potency is reported as inconclusive [activator, single point]. With COc1ccc(Cl)cc1S(=O)(=O)Nc1ccc2c(c1)n(C)c(=O)n2C the Potency was inconclusive [activator, single point]. In the case of O=C(N/N=C/c1c(F)c(F)c(F)c(F)c1F)c1ccc(Cn2cc(Br)cn2)o1, the Potency is reported as inconclusive [activator, single point]. In the case of CC(=O)C1=C(c2cccc([N+](=O)[O-])c2)N(C(C)=O)n2c(C)nnc2S1, the Potency is reported as active: 23.1 µM. In the case of O=C(Cn1cnc2ccccc2c1=O)Nc1nnc(SCc2ccccc2)s1, the Potency is reported as inconclusive [activator, partial curve]. In the case of Cc1cccc(C(=O)NC(=S)NNC(=O)COc2ccc(Cl)cc2)c1, the Potency is reported as “inactive”. With OCCNc1nc(Nc2ccc(Br)cc2)nc2ccccc12 the Potency was inconclusive [activator, single point]. In the case of COc1ccccc1-c1nnc2n1N=C(c1ccc(O)c(O)c1)CS2, the Potency is reported as inconclusive [activator, full curve, poor fit]. In the case of Cc1ccc(NC(=S)N/N=C/c2c(Cl)cccc2Cl)c(C)c1, the Potency is reported as active: 1.46 µM. For Cc1ccc(CNS(=O)(=O)c2c(C)n(C)c(=O)n(C)c2=O)cc1, the Potency was inconclusive [activator, full curve, poor fit]. In the case of CC1(C)Oc2ccc(C(=O)Nc3ccccc3)cc2N(CC#N)C1=O, the Potency is reported as “inactive”. For Cc1cccc(NC(=O)C2(c3ccc([N+](=O)[O-])cc3)CCCC2)c1, the Potency was inconclusive [activator, single point]. For N#CCC(=O)NNC(=S)NC(=O)C(c1ccccc1)c1ccccc1, the Potency was inconclusive [activator, partial curve, poor fit]. In the case of C#C[C@]1(O)CC[C@@H]2[C@H]3CCC4=CC(=O)CC[C@H]4[C@H]3C(=C)C[C@@]21CC, the Potency is reported as “inactive”. For CCOC(=O)c1[nH]c2c(c1C)C(=O)CC(c1ccco1)C2 (stereo not given), the Potency was active: 9.2 µM. With CCOC1=NC(=C(c2ccccc2)c2ccccc2)OC1=O the Potency was inconclusive [activator, single point].
